{"source": "the supplement of paper PMC3334620", "note": "Whole data set: some 33,000 sequences, median “E-score (-0.5 to 0.5)” near -0.012, cut for the highest 2% near 0.27. Some of the results follow."}
{"molecular_target": "T1, Vhr1 (UniProt P40522)", "T1 sequence": "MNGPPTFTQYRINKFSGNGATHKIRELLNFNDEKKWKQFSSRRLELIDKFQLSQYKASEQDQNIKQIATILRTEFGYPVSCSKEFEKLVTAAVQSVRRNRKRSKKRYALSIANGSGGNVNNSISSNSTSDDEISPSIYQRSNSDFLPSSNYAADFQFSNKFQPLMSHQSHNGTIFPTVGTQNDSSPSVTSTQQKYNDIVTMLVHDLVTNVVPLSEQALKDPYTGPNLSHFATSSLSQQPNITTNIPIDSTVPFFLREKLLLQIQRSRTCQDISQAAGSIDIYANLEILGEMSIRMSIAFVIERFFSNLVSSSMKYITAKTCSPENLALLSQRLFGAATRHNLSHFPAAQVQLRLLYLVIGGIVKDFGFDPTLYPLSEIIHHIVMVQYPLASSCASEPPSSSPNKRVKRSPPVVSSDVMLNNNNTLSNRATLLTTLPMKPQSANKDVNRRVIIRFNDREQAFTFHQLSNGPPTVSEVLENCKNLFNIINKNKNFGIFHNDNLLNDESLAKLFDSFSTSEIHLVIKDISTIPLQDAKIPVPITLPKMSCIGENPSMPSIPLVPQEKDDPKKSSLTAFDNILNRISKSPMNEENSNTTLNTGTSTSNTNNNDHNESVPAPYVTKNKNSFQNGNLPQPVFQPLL", "assay": "PBM E-score (8-mer binding enrichment) (E-score (-0.5 to 0.5)); higher = stronger / more preferred TF binding; most listed sequences are background and not binding sites", "details": "protein concentration: 200 nM; construct: GST-full length", "outline": "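E-scores (a modified Wilcoxon-Mann-Whitney statistic) were assigned by the Universal PBM Analysis Suite to every ungapped eight-base word pooled with its reverse complement. The input came from universal all-10-mer Agilent arrays made double-stranded by primer extension and probed with GST-tagged yeast transcription factors at about 100-200 nM. Fluorescent anti-GST detected bound protein, and masliner normalised the scans.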"}
{"sequence": "CGACCATA", "PBM E-score": 0.146}
{"sequence": "ATACGTCG", "PBM E-score": 0.0102}
{"sequence": "AAAGACAT", "PBM E-score": -0.212}
{"sequence": "TACAAATA", "PBM E-score": 0.065}
{"sequence": "CGGACCAC", "PBM E-score": 0.114}
{"sequence": "CATTTGTA", "PBM E-score": 0.0163}
{"sequence": "AAAGTTAC", "PBM E-score": 0.0113}
{"sequence": "AGGGGCAT", "PBM E-score": -0.205}
{"sequence": "GGTATTAA", "PBM E-score": 0.112}
{"sequence": "AGACTGAG", "PBM E-score": -0.0761}
{"sequence": "GCGATAAC", "PBM E-score": -0.133}
{"sequence": "CATGTGAG", "PBM E-score": 0.0613}
{"sequence": "AAAAACCA", "PBM E-score": -0.051}
{"sequence": "GGAAATCC", "PBM E-score": -0.096}
{"sequence": "GACGACGA", "PBM E-score": -0.051}
{"sequence": "CTACATCA", "PBM E-score": 0.222}
{"sequence": "TAGTATCA", "PBM E-score": 0.197}
{"sequence": "GAAAGGAA", "PBM E-score": -0.0483}
{"sequence": "AGGTGATG", "PBM E-score": 0.0344}
{"sequence": "GCACTGTA", "PBM E-score": 0.0123}
{"sequence": "ATTGGAAC", "PBM E-score": 0.0853}
{"sequence": "AATGACCT", "PBM E-score": -0.0434}
{"sequence": "CCATGGAA", "PBM E-score": 0.114}
{"sequence": "GTGTGGAA", "PBM E-score": -0.132}
{"sequence": "CTCTGTTA", "PBM E-score": 0.182}
{"sequence": "AGTAGAGG", "PBM E-score": -0.129}
{"sequence": "TAACTGTA", "PBM E-score": 0.00513}
{"sequence": "AGTTACGC", "PBM E-score": -0.211}
{"sequence": "GCCACGAC", "PBM E-score": 0.11}
{"sequence": "CTGACCAG", "PBM E-score": 0.168}
{"sequence": "ATAGACGG", "PBM E-score": 0.00408}
{"sequence": "AGCGAGAG", "PBM E-score": 0.0482}
{"sequence": "ATGTCGTC", "PBM E-score": -0.034}
{"sequence": "ACTTCGCC", "PBM E-score": 0.00702}
{"sequence": "CGAGTTCA", "PBM E-score": 0.115}
{"sequence": "AAGGATAC", "PBM E-score": -0.00093}
{"sequence": "GGGCCTAA", "PBM E-score": -0.243}
{"sequence": "CCTTTACA", "PBM E-score": -0.259}
{"sequence": "CCACGATA", "PBM E-score": 0.146}
{"sequence": "AAACTGAA", "PBM E-score": -0.152}
{"sequence": "ACGACCGG", "PBM E-score": -0.0928}
{"sequence": "AAGGGTTC", "PBM E-score": -0.0737}
{"sequence": "ACTTATTG", "PBM E-score": -0.131}
{"sequence": "ATTATGTG", "PBM E-score": 0.249}
{"sequence": "AACAGCCA", "PBM E-score": 0.0303}
{"sequence": "CTCTAATA", "PBM E-score": -0.136}
{"sequence": "ACCTCGTG", "PBM E-score": -0.101}
{"sequence": "AAACCCTG", "PBM E-score": -0.068}
{"sequence": "CCCCAGCG", "PBM E-score": -0.108}
{"sequence": "CACTCGGG", "PBM E-score": -0.078}
{"sequence": "TACCCCAA", "PBM E-score": 0.0135}
{"sequence": "AGGTGCTG", "PBM E-score": -0.0578}
{"sequence": "AAAATTAG", "PBM E-score": -0.105}
{"sequence": "AACGAGAC", "PBM E-score": -0.063}
{"sequence": "CATACAAA", "PBM E-score": -0.0286}
{"sequence": "AATACAGT", "PBM E-score": 0.154}
{"sequence": "CTCACGTA", "PBM E-score": -0.0754}
{"sequence": "AAGTTTAA", "PBM E-score": -0.367}
{"sequence": "AAAGGGTT", "PBM E-score": -0.245}
{"sequence": "CGAACGTC", "PBM E-score": -0.187}
{"sequence": "ACATACAA", "PBM E-score": 0.0236}
{"sequence": "GACCTGCA", "PBM E-score": 0.0231}
{"sequence": "ATGCCTGA", "PBM E-score": 0.0818}
{"sequence": "ATTAGCCC", "PBM E-score": -0.223}
{"sequence": "CTCCCAAG", "PBM E-score": -0.131}
{"sequence": "GTCCTTCA", "PBM E-score": -0.0346}
{"sequence": "CATCCGTC", "PBM E-score": 0.0362}
{"sequence": "AGATTGCC", "PBM E-score": -0.0927}
{"sequence": "CGACAATA", "PBM E-score": 0.0881}
{"sequence": "TCGCATAA", "PBM E-score": 0.0102}
{"sequence": "GTGATACA", "PBM E-score": 0.163}
{"sequence": "GAATGCCC", "PBM E-score": -0.118}
{"sequence": "ATGTGGAG", "PBM E-score": 0.055}
{"sequence": "CACGCCCG", "PBM E-score": 0.114}
{"sequence": "CCAGATTC", "PBM E-score": -0.176}
{"sequence": "TCGCAGCA", "PBM E-score": 0.0961}
{"sequence": "GAAACATC", "PBM E-score": -0.14}
{"sequence": "ACCTAATC", "PBM E-score": 0.212}
{"sequence": "AAAGATAT", "PBM E-score": 0.196}
{"sequence": "GGAAGCAA", "PBM E-score": -0.304}
{"sequence": "GACACGGC", "PBM E-score": 0.147}
{"sequence": "ATCATTTA", "PBM E-score": 0.132}
{"sequence": "CATAAGGC", "PBM E-score": 0.00616}
{"sequence": "ATTGCGCG", "PBM E-score": 0.125}
{"sequence": "AAGTAATC", "PBM E-score": 0.224}
{"sequence": "CCATGCCA", "PBM E-score": 0.122}
